From paper PMC4336329 (PLoS ONE, 2015)
The whole screen tested about 310,000 compounds, of which about 2,200 (0.71%) showed an effect of 50% or more. Effects have a minus sign here. The list shows a part of the results.

molecular target: human ether-à-go-go-related gene (hERG) potassium channel (human, UniProt Q12809); assay: primary screen, population patch clamp on CHO cells stably expressing hERG
Sequence (Q12809 whole entry, looked up): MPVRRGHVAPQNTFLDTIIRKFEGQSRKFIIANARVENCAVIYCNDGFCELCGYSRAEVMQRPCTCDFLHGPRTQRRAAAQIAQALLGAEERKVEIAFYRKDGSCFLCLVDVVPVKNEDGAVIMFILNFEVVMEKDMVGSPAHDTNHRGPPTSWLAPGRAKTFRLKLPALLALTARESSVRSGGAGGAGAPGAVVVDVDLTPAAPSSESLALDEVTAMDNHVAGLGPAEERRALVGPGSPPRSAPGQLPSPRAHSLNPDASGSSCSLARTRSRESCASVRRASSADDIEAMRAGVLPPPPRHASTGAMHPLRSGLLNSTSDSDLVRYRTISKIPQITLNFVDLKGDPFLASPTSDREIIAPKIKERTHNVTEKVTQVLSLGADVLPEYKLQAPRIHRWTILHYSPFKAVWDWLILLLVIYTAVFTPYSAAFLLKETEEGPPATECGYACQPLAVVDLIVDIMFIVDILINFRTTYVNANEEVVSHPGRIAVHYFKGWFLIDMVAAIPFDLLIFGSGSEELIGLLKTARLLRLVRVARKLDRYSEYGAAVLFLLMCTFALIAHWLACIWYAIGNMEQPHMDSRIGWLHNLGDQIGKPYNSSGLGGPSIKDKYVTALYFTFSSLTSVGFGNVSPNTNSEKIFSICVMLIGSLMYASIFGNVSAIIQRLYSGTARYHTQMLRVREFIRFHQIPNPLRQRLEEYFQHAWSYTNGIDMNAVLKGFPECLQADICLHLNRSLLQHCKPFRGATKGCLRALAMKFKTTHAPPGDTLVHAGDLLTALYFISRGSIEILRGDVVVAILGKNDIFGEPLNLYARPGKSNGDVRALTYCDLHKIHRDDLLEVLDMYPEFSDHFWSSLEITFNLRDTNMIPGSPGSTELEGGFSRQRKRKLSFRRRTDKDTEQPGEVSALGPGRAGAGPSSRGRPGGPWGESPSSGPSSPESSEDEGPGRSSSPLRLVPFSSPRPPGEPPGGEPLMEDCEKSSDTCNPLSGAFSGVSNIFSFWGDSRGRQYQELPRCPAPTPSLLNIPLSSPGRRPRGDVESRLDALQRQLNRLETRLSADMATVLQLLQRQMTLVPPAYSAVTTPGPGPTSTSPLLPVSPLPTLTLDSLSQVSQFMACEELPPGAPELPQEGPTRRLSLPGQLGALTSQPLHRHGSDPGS

Structure (SMILES)	hERG current change (%, negative = inhibition) at 1uM [%]
COc1ccc(-c2cc(C(F)(F)F)c3c(n2)sc2c(O)cc(=O)[nH]c23)c(OC)c1	11.4
O=S(=O)(c1cnc[nH]1)N1CCN(C(c2ccc(F)cc2)c2ccc(F)cc2)CC1	7.47
Cc1oc(/C=N/NC(=O)CC2(C)OCCO2)cc1Br	13.8
COc1cccc(OC)c1C(=O)Nc1nnc(C(C)C)s1	9.18
CC(C)Cn1c(-c2ccccc2)nc2ccccc2c1=O	4.25
COc1cccc(C(=O)Nc2cc(NC(=O)c3ccco3)ccc2OC)c1	8.83
CCOC(=O)N1CCC(NC(=O)c2ccc(CS(=O)(=O)c3ccccc3C)o2)CC1	-1.89
Nn1c(SCC(=O)N2CCOCC2)nnc1-c1cccnc1	24.2
COc1ccc(C(NC(=O)CNC(C)=O)C(=O)Nc2ccc3c(c2)OCCO3)cc1 (stereo not shown)	6.92
O=C(NCC1CCN(Cc2cccc(Cl)c2)CC1)Nc1ccc(Cl)cc1	-23.1
O=C(COC(=O)COc1ccc(Br)cc1)Nc1ccc2c(c1)OCCO2	11.8
O=C1CSC(=S)N1c1ccc(F)c(Cl)c1	11.1
CC(C)N1CCC(=NNc2ccc([N+](=O)[O-])cc2S(=O)(=O)N2CCOCC2)CC1	-7.92
O=C(N/N=C/c1ccco1)c1cccc(NC(=O)c2ccccc2Cl)c1	9.31
CSc1ccc(CN(C)C(C)C(=O)Nc2ccc(F)c(F)c2F)cc1 (stereo not shown)	13.4
O=C(Nc1ccon1)Nc1ccc(Cl)cc1Cl	12.4
O=C(Nc1cccc(Cl)c1N1CCCC1)c1ccc([N+](=O)[O-])o1	9.79
O=C(O)CCSc1nc(C(F)(F)F)cc(=O)n1-c1ccccc1	14.4
c1cc2c(cc1-n1cnnn1)OCO2	4.05
CCCCNC(=S)N(C)/N=C/c1ccccc1C(=O)O	14.3
O=C(Oc1ccccc1)N1CCN(C(=O)c2ccco2)CC1	11.1
CC1CCC(NS(=O)(=O)c2ccc3c(c2)CC(=O)N3)CC1 (stereo not shown)	17.4
CCOC(=O)c1ccc(NC(=S)Nc2cc(C)cc(C)n2)cc1	14.4

Structure (SMILES)	hERG current change (%, negative = inhibition) at 1uM [%]
N#Cc1c(SCC(=O)N2CCOCC2)nsc1SCC(=O)N1CCOCC1	10.5
Cc1[nH+]csc1CCOC(=O)c1ccc([N+](=O)[O-])cc1.[Cl-]	-6.66
O=C(Nc1ccc(C(=O)NN2C(=O)c3ccccc3C2=O)cc1)c1ccccc1	2.31
CCN1CCN(C(=S)c2ccc(OC)cc2)CC1	-31
CC(=O)c1ccc(OCCN2CCOCC2)cc1.O=C(O)C(=O)O	2.38
CSc1nc2ccc(NC(=O)c3ccc(Cl)s3)cc2s1	7.76
CCO[C@@H]1OC(C(=O)N2CCOCC2)=C[C@H](C(C)(C)C)[C@H]1CCCO	24.1
Cc1ccc[n+](-c2nc3ccccc3nc2[N-]S(=O)(=O)c2ccccc2)c1	13.7
CCOCC(=O)Nc1cc(S(=O)(=O)N2CCOCC2)ccc1N1CCCCC1	38.4
CCC(C)N(C(=O)CSc1nnc(COc2ccccc2F)n1N)C1CCS(=O)(=O)C1 (stereo not shown)	9.27
CCn1nc(NS(=O)(=O)c2ccc(F)cc2)c2cc3cccc(C)c3nc21	7.99
Cc1cc(=O)oc2cc(OCC(=O)OCC(=O)NCc3ccc4c(c3)OCO4)ccc12	10.1
Cc1cccc(NC(N)=S)c1	-3.13
COc1ccccc1-c1nnc(NC(=O)c2cccc(N3C(=O)CCC3=O)c2)o1	15
COC(=O)C(Cc1ccccc1)NC(=O)CCNC(=O)c1ccco1 (stereo not shown)	17.7
CCCn1c(SCC(=O)NCCc2ccccc2)nnc1-c1cccnc1	7.55
CC1CCCN(C(=O)C2CCN(CC(C)c3ccccc3)CC2)C1.O=C(O)C(=O)O (stereo not shown)	18.5
Brc1ccccc1-c1nnc(CSc2nncn2-c2ccccc2)o1	8.67
CCOC(=O)c1c(C)nc2c3ccccc3ccn12	2.99
Cc1cc(C)nc(N2CCCC(C(=O)Nc3ccc4nc(C)c(C)nc4c3)C2)n1 (stereo not shown)	16.1
O=c1[nH]c(=O)n(Cc2ccccc2Cl)c(O)c1C=Nc1ccc(F)cc1	5.87
CC(=O)N1N=C(c2ccccc2)CC1c1ccccc1 (stereo not shown)	5.69
Cc1cc(Br)cc2cn[nH]c12	12.5
